# Measurements taken from PubChem BioAssay AID504332 (National Center for Advancing Translational Sciences (NCATS), 2011).
# Values joined by “and” are separate entries in the source; they are usually repeats but may differ in a detail not shown here. Equal values may be shown once. Screen size: about 350,000 compounds; about 31,000 (8.9%) were called active. The inconclusive results got no clear call from the source; some entries with a clear call stand among them for comparison. The call rests on the fitted dose curve; in most records, active means well fitted inhibition curve with a large enough effect; inconclusive means small, poorly fitted or top-dose-only effect; inactive means no such curve, though single readings can be large or run the other way. Where the call is inconclusive, the potency comes from a doubtful curve fit.
# Target: Histone-lysine N-methyltransferase EHMT2 (Homo sapiens) (UniProt Q96KQ7)
# UniProt Q96KQ7, sequence (Q96KQ7 whole entry, looked up): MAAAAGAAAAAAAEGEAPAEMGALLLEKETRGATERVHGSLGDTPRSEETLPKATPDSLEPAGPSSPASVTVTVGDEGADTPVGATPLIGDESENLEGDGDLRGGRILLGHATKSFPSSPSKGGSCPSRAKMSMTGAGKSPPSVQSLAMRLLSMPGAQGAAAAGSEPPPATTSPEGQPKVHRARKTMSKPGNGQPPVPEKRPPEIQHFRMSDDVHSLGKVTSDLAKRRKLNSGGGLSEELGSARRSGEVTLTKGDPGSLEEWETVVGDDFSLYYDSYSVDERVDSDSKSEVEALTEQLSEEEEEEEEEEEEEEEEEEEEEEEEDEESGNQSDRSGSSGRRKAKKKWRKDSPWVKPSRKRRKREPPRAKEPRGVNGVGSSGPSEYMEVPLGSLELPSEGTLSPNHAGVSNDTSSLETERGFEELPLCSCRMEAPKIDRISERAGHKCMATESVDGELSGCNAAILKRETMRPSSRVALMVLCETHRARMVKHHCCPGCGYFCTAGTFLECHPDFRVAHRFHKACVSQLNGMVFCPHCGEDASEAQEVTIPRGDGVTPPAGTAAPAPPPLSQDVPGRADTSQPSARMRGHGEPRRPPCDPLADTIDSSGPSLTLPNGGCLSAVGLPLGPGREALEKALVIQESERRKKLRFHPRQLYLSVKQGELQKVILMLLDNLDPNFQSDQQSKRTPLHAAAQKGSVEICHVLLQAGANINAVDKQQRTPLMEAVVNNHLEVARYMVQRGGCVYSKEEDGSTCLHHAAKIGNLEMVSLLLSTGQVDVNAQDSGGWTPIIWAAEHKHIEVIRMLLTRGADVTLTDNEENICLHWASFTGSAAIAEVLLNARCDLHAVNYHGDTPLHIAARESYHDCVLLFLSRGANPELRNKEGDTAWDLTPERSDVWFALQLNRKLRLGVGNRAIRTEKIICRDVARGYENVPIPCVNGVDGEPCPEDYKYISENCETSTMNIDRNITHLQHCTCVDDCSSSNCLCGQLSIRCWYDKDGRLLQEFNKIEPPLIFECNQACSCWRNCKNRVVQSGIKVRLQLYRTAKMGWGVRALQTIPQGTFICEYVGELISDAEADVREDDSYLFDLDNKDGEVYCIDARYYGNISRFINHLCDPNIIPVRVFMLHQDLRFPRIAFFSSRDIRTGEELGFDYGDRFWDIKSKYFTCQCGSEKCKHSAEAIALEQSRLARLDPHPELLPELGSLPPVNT
# Experiment: qHTS Assay for Inhibitors of Histone Lysine Methyltransferase G9a; further: nearly all actives have a fitted effect of over 75% in size
# Conditions: G9a H3K9 monomethylation, AlphaScreen, 2 h; activity, negative = inhibition: at 59 µM (top of the series) unless noted
# Summary of the method: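 Enzyme 20 nM + cpd, 15 min RT; add b-H3K9 pep 500 nM / SAM 20 uM; 2 h RT; anti-H3K9me1 Ab 0.5 ug/mL + SA donor / anti-rabbit acceptor beads 20 ug/mL each, 10 min; AlphaScreen read.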
# On the % scale 0 is the no-effect control and ±100 the full control effect; potency means the concentration at half of the fitted maximal effect; tags describe the fitted curve by direction and shape.
SMILES,Potency,"activity, negative = inhibition"
CCOC(=O)C1(CCOc2ccccc2)CCN(Cc2cc(OC)c3c(c2)OCO3)CC1,"inconclusive: 22.4 µM [inhibitor, partial curve, poor fit]",–
CCCCNC(=O)NNc1nc(Cl)cc(C)c1C#N,active: 31.6 µM,–
O=C(CSc1nc(-c2ccccc2)c(-c2ccccc2)[nH]1)Nc1ccc2c(c1)OCO2,"inconclusive: 79.4 µM [inhibitor, partial curve, poor fit]",–
O=C(CN(Cc1ccccc1)C(=O)CCl)c1cccc(Br)c1,–,inactive: -3.66% [at 12.7 µM]
O=C(Nc1ccccc1)Nc1ccccc1C(=O)NCc1ccco1,–,inactive: 0.665% [at 12.7 µM]
CCC1=Nc2cc(C(=O)O)ccc2Sc2ccccc21,–,inactive: -21.6% [at 102 µM]
CCOC(=O)C(C)n1cnc2c(nnn2-c2cccc(OC)c2)c1=O (stereo unspecified),–,inactive: 24% [at 102 µM]
COc1cc(NC(=O)c2c3c(nc4ccccc24)CCC3)cc(OC)c1,–,inactive: 8.57% [at 102 µM]
Cn1c(SCC(=O)NCc2ccco2)nnc1-c1c[nH]c2ccccc12,"inconclusive: 79.4 µM [inhibitor, single point]",–
Cc1cccc(C(C(=O)NC2CCCC2)N(C(=O)c2csnn2)C2CCCC2)c1 (stereo unspecified),–,inactive: -6.88% [at 102 µM]
c1ccc(C(c2nnnn2Cc2ccco2)N2CCN(c3nc4ccccc4s3)CC2)cc1 (stereo unspecified),"inconclusive: 8.91 µM [inhibitor, partial curve, poor fit]",–
OC(COc1ccc(Cl)cc1Cl)Cn1ccnc1 (stereo unspecified),–,inactive: -1.69% [at 102 µM]
Cc1ccccc1S(=O)Cc1ccc(C(=O)NC2CCCCCC2)o1 (stereo unspecified),–,inactive: -24.4%
CCOc1cccc2sc(NC(=O)c3ccc(S(=O)(=O)N4CCCc5ccccc54)cc3)nc12,–,inactive: 13.6%
Cc1cc(/C=C(\C#N)C(=O)NCC2CCCO2)c(C)n1-c1ccc(Cl)cc1 (stereo unspecified),"inconclusive: 50.1 µM [inhibitor, partial curve]",–
Cc1ccc(CCNC(=O)c2ccc3c(=O)n(-c4ccc(C)cc4)c(=O)[nH]c3c2)cc1,–,inactive: 0.782%
COc1cc(CNC(C)(C)CO)cc(Br)c1OCc1ccc(Cl)cc1Cl,"inconclusive: 89.1 µM [inhibitor, single point]",–
COc1ccc(C(=O)Cn2nc(CNc3ccc(Br)cc3)[n+]3c2CCCCC3)cc1,"inconclusive: 39.8 µM [inhibitor, partial curve]",–
COc1ccc(C(=O)Nc2sc(C)c(-c3ccccc3)c2C#N)cc1OC,"inconclusive: 11.2 µM [inhibitor, partial curve, poor fit]",–
Cc1ccc(C)c(NC(=O)Nc2nnc(N(CC(C)C)CC(C)C)s2)c1,–,inactive: -32.1%
Cc1nc2ccccn2c(=O)c1CCN1CCC(C(=O)c2ccc(F)cc2)CC1,inactive,–
COc1ccc(Nc2ncccc2C(=O)Nc2ccccc2)cc1,"inconclusive: 1 µM [inhibitor, full curve, poor fit]",–
CCOC(=O)c1c(C)[nH]c(C)c1S(=O)(=O)N1CCC(C(=O)N2CCN(c3cccc(C)c3)C(C)C2)CC1 (stereo unspecified),–,inactive: -28.2%
Cc1ccccc1C(=O)c1cccn1CC(=O)NCC1CCCO1 (stereo unspecified),active: 44.7 µM,–

SMILES,Potency,"activity, negative = inhibition"
O=C(Cn1cc(SCc2cccc(F)c2)c2ccccc21)N1CCCC1,–,inactive: 0.469%
Clc1c(-c2nnc3n2CCC3)sc2ccccc12,–,inactive: 3.08%
NC(=O)C1=C[C@H](c2ccccc2)C[C@H](OCc2ccc(CO)cc2)O1,–,inconclusive: -80.7% [inhibitor]
N#CCCN(C(=O)COC(=O)c1ccc(S(=O)(=O)Nc2ccccc2)cc1)c1ccccc1,"inconclusive: 89.1 µM [inhibitor, single point]",–
Cc1ccc(CCSc2ccc(C(C)C)cc2)cn1,"inconclusive: 89.1 µM [inhibitor, single point]",–
CCN(CC)CCNC(=O)c1ccc(N2CCCCC2)c(NS(=O)(=O)c2ccc(C)cc2)c1,"inconclusive: 15.8 µM [inhibitor, single point]",–
COc1cccc(-n2nnc3c(sc4nc(C)cc(C)c43)c2=O)c1,–,inactive: -21.6%
Cc1c(Cl)cccc1NC(=O)N1CCC(CN2CCCC2)CC1,–,inactive: -2.75%
FC(F)(F)c1cccc(N2CCN(Cc3cccnc3)CC2)c1,active: 14.1 µM,–
COc1ccc2c(C)cc(SC3CCOC3=O)nc2c1 (stereo unspecified),–,inactive: -8.06%
COc1cccc(C2CC(c3ccc(Cl)cc3Cl)n3nc(N)nc3N2)c1 (stereo unspecified),"inconclusive: 89.1 µM [inhibitor, single point]",–
COc1cc(C(=O)O/N=C2/C=CC(=O)C(C)=C2C)cc(OC)c1OC,"inconclusive: 50.1 µM [inhibitor, partial curve, poor fit]",–
Cc1ccc(S(=O)(=O)Nc2ccc3c(c2)nc2n3CCN(Cc3ccccc3)C2)cc1,"inconclusive: 3.55 µM [inhibitor, single point]",–
CC(=O)Nc1ccc(NC2=CC(=O)c3ccccc3C2=O)cc1,active: 2 µM,–
COc1ccc(CN2CCN(C(=O)c3cccc(OC)c3OC)CC2)cc1OC,active: 7.94 µM,–
COc1ccc2c(c1)c(C(=O)CN1CCN(c3ccccc3)CC1)c(C)n2C,active: 35.5 µM,–
COc1ccc2c(c1)S(=O)(=O)c1ccccc1N2,–,inactive: 13.8% [at 102 µM]
O=C(COc1ccc2c3c(c(=O)oc2c1)CCC3)NC1CCCCC1,–,inconclusive: -62.1% [inhibitor] [at 102 µM]
CCn1c(C)c(C(C)=O)c(N2CCCC2)nc1=S,"inconclusive: 89.1 µM [inhibitor, single point]",–
Cc1ccc(NC(=O)CSc2nc(C)c(Cc3ccccc3)c(=O)[nH]2)cc1,"inconclusive: 79.4 µM [inhibitor, partial curve, poor fit]",–
COc1ccc(OCC(O)Cn2c(=N)n(Cc3ccccc3)c3ccccc32)cc1 (stereo unspecified),"inconclusive: 35.5 µM [inhibitor, partial curve, poor fit]",–
COCCCNC(=O)Cn1c(=O)n(Cc2ccc(C(=O)NCc3ccc(C)cc3)cc2)c(=O)c2ccccc21,–,inactive: -4.1%
CN(C)c1ccc(-c2nn3c(C4CCCCC4)nnc3s2)cc1,–,inconclusive: -58.9% [inhibitor]
COc1ccc(CCNC(=O)CN(c2ccccc2OC)S(=O)(=O)c2ccc(C)cc2)cc1,"inconclusive: 2.24 µM [inhibitor, full curve, poor fit] and inconclusive: 44.7 µM [inhibitor, partial curve]",–

SMILES,Potency,"activity, negative = inhibition"
COC(=O)c1c(NC(=O)c2cc(=O)c3ccc(C)c(C)c3o2)sc2c1CCCC2,–,inactive: 5.57%
O=C(Nc1sc2c(c1C(=O)Nc1ccccc1Cl)CCCC2)c1ccccc1F,"inconclusive: 39.8 µM [inhibitor, single point]",–
O=C1NC2(CCC3(CC2)OCCO3)NN1c1ccc(Cl)cc1,active: 44.7 µM,–
Cn1c(=O)c(-c2cccs2)nc2cnc(N3CCOCC3)nc21,–,inactive: 15.6% [at 0.501 µM]
CSc1oc(-c2ccco2)nc1S(=O)(=O)c1ccc(C)cc1,active: 28.2 µM,–
Cc1ccc(-c2nn(-c3ccccc3)cc2CN(Cc2ccccc2)C(=O)CCC(=O)O)o1,"inconclusive: 3.55 µM [inhibitor, single point]",–
CCc1ccc(OCC(=O)NC2CCCCC2)c(Br)c1,"inconclusive: 89.1 µM [inhibitor, single point]",–
CCN(C(=O)CSc1nc(C2CC2)n(-c2ccccc2)n1)C1CCS(=O)(=O)C1 (stereo unspecified),"inconclusive: 44.7 µM [inhibitor, partial curve, poor fit]",–
Cc1cc(C)nc(/N=C(\N)Nc2ccc(S(=O)(=O)Nc3nccc(C)n3)cc2)n1,–,inactive: 5.31% [at 0.501 µM]
CC(C)c1ccc(CN2CCN(C(=O)CCl)CC2)cc1,"inconclusive: 89.1 µM [inhibitor, single point]",–
CCC(C)c1ccc(OCC(=O)Nc2cccc(-c3nc4ncccc4o3)c2)cc1 (stereo unspecified),–,inactive: 6.44%
CCCCn1c(N)c(N(CCOC)C(=O)c2ccc(N3CCCC3)c([N+](=O)[O-])c2)c(=O)[nH]c1=O,"inconclusive: 79.4 µM [inhibitor, partial curve, poor fit]",–
Cc1ccccc1Cn1cc(CCC(=O)NC(C)c2ccccc2)c2ccccc21 (stereo unspecified),–,inactive: -3.93%
CC(C)c1ccccc1OCCCCCNCCO,"inconclusive: 89.1 µM [inhibitor, single point]",–
CC(=O)OC1CC(OC(C)=O)[C@]2(C)C(CC(OC(C)=O)[C@]3(C)C2CC[C@@]2(C)C(c4ccoc4)OC(=O)C4O[C@]432)C1(C)C (stereo partly specified),–,inactive: -14.7% [at 2.33 µM]
COc1cccc(-c2cn3c(n2)sc2cc(C(=O)NC4CCCCCC4)ccc23)c1,–,inactive: -5.53%
Cc1ccc(S(=O)(=O)/N=C/c2c(O)ccc3ccccc23)cc1,active: 3.98 µM,–
O=C(Cn1ncc2c3ccccc3n(Cc3ccc(Cl)cc3)c2c1=O)N1CCCCCC1,"inconclusive: 39.8 µM [inhibitor, partial curve, poor fit]",–
O=C(O)c1cc(N2C(=O)C3C4C=CC(C4)C3C2=O)ccc1NCc1cccnc1 (stereo unspecified),"inconclusive: 3.16 µM [inhibitor, partial curve, poor fit]",–
Cc1cc(C(=O)O)sc1C,"inconclusive: 39.8 µM [inhibitor, single point]",–
O=S(=O)(Nc1nc2ccccc2nc1N1CCN(c2ccccc2F)CC1)c1ccc(Cl)cc1,"inconclusive: 0.631 µM [inhibitor, full curve, poor fit]",–
O=C(Nc1ccc2c(c1)CCCN2C(=O)c1cccs1)c1cccc(C(F)(F)F)c1,–,inactive: -0.858% [at 12.7 µM]
CCCOP(=O)(OCCC)c1c([N+](=O)[O-])cc(C(F)(F)F)cc1[N+](=O)[O-],"inconclusive: 89.1 µM [inhibitor, single point]",–
